# Data: the supplement of paper PMC10369915
# The other results are listed elsewhere or left out. Cut-off read from the data, not from the text of the source: active = 3.2 or more and inactive = the rest. Only a few entries rise above the background.
# Assays:
# Test in all cases: enrichment score (SH2-bound / input frequency) (ratio); bacterial display of known human phosphotyrosine sites (pTyr-Var adds point mutants) read by sequencing; higher = stronger binding; tyrosines were phosphorylated by kinases first
# Settings in all cases: peptide library: Human pTyr
# SHP2 C-SH2 domain E139D = biological target: SHP2 C-SH2 domain E139D
# [1] = biological target: SHP2 C-SH2 domain wild-type
# SHP2 N-SH2 domain L43F = biological target: SHP2 N-SH2 domain L43F
# SHP2 N-SH2 domain T42A = biological target: SHP2 N-SH2 domain T42A
# SHP2 N-SH2 domain T52S = biological target: SHP2 N-SH2 domain T52S
# [2] = biological target: SHP2 N-SH2 domain wild-type
# 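Note: displayed peptides selected on beads carrying the immobilized SH2 domain, with library peptides lacking any tyrosine serving as negative controls.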
Binder,enrichment score (SHP2 C-SH2 domain E139D),enrichment score [1],enrichment score (SHP2 N-SH2 domain L43F),enrichment score (SHP2 N-SH2 domain T42A),enrichment score (SHP2 N-SH2 domain T52S),enrichment score [2]
ERLGEDPYATENGGG [CD34_HUMAN_329_YA],inactive: 0.734,inactive: 0.765,inactive: 0.829,inactive: 0.814,inactive: 0.743,inactive: 0.767
TSLGSQSYEDMRGIL [CD19_HUMAN_500],inactive: 0.742,inactive: 0.468,inactive: 0.453,inactive: 0.531,inactive: 0.723,inactive: 0.414
KQPIPAAYNRYDQER [CDC73_HUMAN_290],inactive: 1.18,inactive: 0.92,inactive: 1.01,inactive: 1.12,inactive: 1.15,inactive: 1.2
DNSSDSDYDLHGAQR [CD5_HUMAN_487],inactive: 0.583,inactive: 0.42,inactive: 0.597,inactive: 0.532,inactive: 0.477,inactive: 0.593
KNPQEGLYNELQKDK [CD3Z_HUMAN_111],inactive: 0.868,inactive: 0.793,inactive: 0.655,inactive: 0.831,inactive: 0.693,inactive: 0.869
KDKMAEAYSEIGMKG [CD3Z_HUMAN_123],inactive: 1.86,inactive: 0.858,inactive: 0.909,inactive: 0.855,inactive: 1.09,inactive: 1
GLDPVEVYESLPEEL [CDC37_HUMAN_298],inactive: 1.28,inactive: 1.12,inactive: 1.34,inactive: 1.22,inactive: 1.23,inactive: 1.34
DDTREDIYVNAPTFS [CD226_HUMAN_322_YA],inactive: 0.651,inactive: 0.668,inactive: 0.706,inactive: 0.545,inactive: 0.603,inactive: 0.622
NLGRREEYDVLDKRR [CD3Z_HUMAN_83],inactive: 0.865,inactive: 0.744,inactive: 0.887,inactive: 0.917,inactive: 0.717,inactive: 0.917
VDQVEVEYVTMASLP [CD300LF_HUMAN_236],inactive: 0.85,inactive: 0.849,inactive: 0.812,inactive: 1.32,inactive: 0.743,inactive: 0.817
EEEEGEGYEEPDSEE [CD19_HUMAN_409],inactive: 1.03,inactive: 0.815,inactive: 0.719,inactive: 0.785,inactive: 0.662,inactive: 0.651
TRKHAQPYAPPRDFA [CD28_HUMAN_209_YA],inactive: 1.85,inactive: 2.32,inactive: 1.86,inactive: 2.14,inactive: 2.5,inactive: 2.61
EKLRVLGYNQNGEWS [ABL2_HUMAN_139],inactive: 0.825,inactive: 0.545,inactive: 0.607,inactive: 0.555,inactive: 0.748,inactive: 0.816
TAPESLAYNKFSIKS [ABL1_HUMAN_413],inactive: 1.13,inactive: 0.926,inactive: 1.02,inactive: 0.928,inactive: 1.02,inactive: 1.07
AGSPLKAYTPVVVTQ [CD11A_HUMAN_582_YA],inactive: 1.03,inactive: 0.761,inactive: 0.817,inactive: 1.49,inactive: 0.903,inactive: 0.843
DDTREDIYVNYPTFS [CD226_HUMAN_322],inactive: 0.924,inactive: 0.832,inactive: 0.936,inactive: 0.807,inactive: 0.8,inactive: 1.18
KIDTMGTYHGMTLKS [CDC73_HUMAN_315],inactive: 0.893,inactive: 0.892,inactive: 0.797,inactive: 0.998,inactive: 0.819,inactive: 1.04
ILLTIDRYLAIVHAV [CCR1_HUMAN_132],inactive: 2.87,inactive: 3.16,inactive: 2.68,active: 3.22,active: 3.48,active: 3.83
